# Results reported in PubChem BioAssay AID504332 (National Center for Advancing Translational Sciences (NCATS), 2011).
# Out of some 350,000 compounds screened, about 31,000 (8.9%) were called active. Inconclusive results, whose numbers are uncertain, are shown with a selection of clear calls. Calls follow the shape of the dose curve; as a rule, active = well fitted inhibition curve with a large enough effect; inconclusive = small, poorly fitted or top-dose-only effect; inactive = no such curve, though single readings can be large or run the other way. Potencies of inconclusive entries are doubtful fits and often do not repeat.
# Biological target: Histone-lysine N-methyltransferase EHMT2 (Homo sapiens) (UniProt Q96KQ7)
# Sequence of UniProt Q96KQ7 (Q96KQ7 whole entry, looked up): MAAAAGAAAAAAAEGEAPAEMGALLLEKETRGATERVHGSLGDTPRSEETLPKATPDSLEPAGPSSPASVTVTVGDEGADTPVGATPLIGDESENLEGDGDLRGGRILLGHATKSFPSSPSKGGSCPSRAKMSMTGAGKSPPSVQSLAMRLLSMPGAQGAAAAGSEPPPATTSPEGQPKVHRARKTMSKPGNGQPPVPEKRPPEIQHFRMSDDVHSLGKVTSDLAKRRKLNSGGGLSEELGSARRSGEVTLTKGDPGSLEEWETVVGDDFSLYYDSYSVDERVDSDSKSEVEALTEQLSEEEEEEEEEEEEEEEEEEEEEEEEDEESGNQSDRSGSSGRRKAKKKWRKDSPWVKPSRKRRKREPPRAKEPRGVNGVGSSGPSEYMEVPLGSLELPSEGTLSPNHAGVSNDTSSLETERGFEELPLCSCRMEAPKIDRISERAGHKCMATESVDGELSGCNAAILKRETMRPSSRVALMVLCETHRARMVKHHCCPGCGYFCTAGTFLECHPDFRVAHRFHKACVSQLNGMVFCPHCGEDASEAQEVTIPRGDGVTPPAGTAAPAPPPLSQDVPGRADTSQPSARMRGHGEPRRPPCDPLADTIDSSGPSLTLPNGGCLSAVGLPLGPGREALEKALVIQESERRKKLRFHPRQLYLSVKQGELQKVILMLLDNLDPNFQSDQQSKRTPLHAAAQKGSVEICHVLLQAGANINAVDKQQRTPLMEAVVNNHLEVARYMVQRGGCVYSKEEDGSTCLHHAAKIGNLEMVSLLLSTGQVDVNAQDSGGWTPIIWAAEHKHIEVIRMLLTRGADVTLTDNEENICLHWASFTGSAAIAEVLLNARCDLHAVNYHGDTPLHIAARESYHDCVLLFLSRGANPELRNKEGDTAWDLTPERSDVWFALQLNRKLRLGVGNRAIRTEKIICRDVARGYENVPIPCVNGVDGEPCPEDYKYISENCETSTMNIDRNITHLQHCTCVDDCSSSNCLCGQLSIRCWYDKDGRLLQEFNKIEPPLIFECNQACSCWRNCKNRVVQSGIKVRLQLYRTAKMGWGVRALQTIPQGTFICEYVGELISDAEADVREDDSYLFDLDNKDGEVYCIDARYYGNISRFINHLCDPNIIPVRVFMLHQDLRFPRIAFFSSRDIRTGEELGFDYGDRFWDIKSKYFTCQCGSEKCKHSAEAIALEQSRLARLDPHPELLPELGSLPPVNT
# Assay: qHTS Assay for Inhibitors of Histone Lysine Methyltransferase G9a; also: nearly all actives have a fitted effect of over 75% in size
# Conditions: G9a H3K9 monomethylation, AlphaScreen, 2 h; activity, negative = inhibition: at 59 µM (top of the series) unless noted
# Method in brief: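 Methyltransferase reactions run at room temperature for 2 h (20 nM enzyme, 500 nM biotin-H3K9 peptide, 20 uM SAM) after a 15 min compound preincubation; product detected by AlphaScreen beads and anti-H3K9me1 antibody.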
# % is scaled to controls: 0 for no effect and ±100 for the full control effect; potency is read from the fitted curve at half-maximal effect; tags tell the direction and shape of the fitted curve.
Compound,Potency,"activity, negative = inhibition"
CC(C)Cn1cc(C(=O)N2CCN(c3cccc(Cl)c3)CC2)c2c3ccccc3n(C)c2c1=O,"inconclusive: 31.6 µM [inhibitor, partial curve, poor fit]",
COc1ccc(OC)c(CNc2sc3c(c2C(=O)Nc2cc(OC)ccc2OC)CCCC3)c1,active: 11.2 µM,
Cc1nc(NC(=O)CSc2nnnn2C)sc1C,"inconclusive: 31.6 µM [inhibitor, single point]",
COc1ccc(OC)c(NC(=O)N2CCC(CN3CCCCC3)CC2)c1,inactive,
C=CCn1c(-c2ccccc2)c[nH]c1=S,"inconclusive: 1.41 µM [inhibitor, partial curve, poor fit]",
COCCNC(=O)C(OC(=O)c1cc2oc(C)cc2n1C)C(C)C (stereo not given),,inconclusive: -59.7% [inhibitor]
COc1ccc(OC2C(=O)N(Cc3ccc(F)cc3)C2c2cc(OC)c(OC)c(OC)c2)cc1 (stereo not given),"inconclusive: 63.1 µM [inhibitor, partial curve, poor fit]",
COC(=O)c1ccc(Cn2c(SCC(=O)N(C)c3ccccc3)nc3ccccc32)cc1,,inactive: -1.12% [at 12.7 µM]
Cc1cccc(C)c1NC(=O)c1ccc(-c2ccc(Cl)cc2Cl)o1,inactive,
CCN(CC)C1CC(=O)N(c2cccc(Cl)c2)C1=O (stereo not given),active: 8.91 µM,
CCOC(=O)c1c(NC(=O)c2c(-c3ccccc3)noc2C)sc(C)c1-c1ccccc1,inactive,
N#CCC(=O)c1ccccc1Oc1ccc(Cl)cc1,inactive,
O=C(/C=C/c1ccco1)c1ccc(O)cc1,"inconclusive: 10 µM [inhibitor, partial curve, poor fit]",
CCN1C2=C(C(=O)CCC2)C(c2ccc(O)cc2)C2=C1CCCC2=O,active: 20 µM,
CCOc1cc(C(=O)Nc2ccc(S(=O)(=O)Nc3cc(OC)nc(OC)n3)cc2)cc(OCC)c1OCC,"inconclusive: 31.6 µM [inhibitor, partial curve, poor fit]",
C=CCNC(=O)CSc1nnc(-c2cccs2)o1,inactive,
COC(=O)c1c(NC(=O)CN2CCC(C(N)=O)CC2)c2c(C)cccc2n1C,"inconclusive: 5.62 µM [inhibitor, full curve, poor fit]",
Cc1ccc(C)c(OC(=O)CSc2nnc(-c3ccc4c(c3)OCO4)o2)c1,inactive,
NS(=O)(=O)c1ccc(NC(=O)CSC2CCCCC2)cc1,"inconclusive: 79.4 µM [inhibitor, partial curve, poor fit]",
C/C(=N\NC(=O)NC1CCCCC1)c1ccco1,"inconclusive: 10 µM [inhibitor, full curve]",
